# Results as given in PubChem BioAssay (Tox21).
# “And” between values parts separate entries of the source, which are not always exact repeats. Equal entries are not always repeated. Inconclusive means that the source gave no clear call. Such entries were picked first, then a sample of the others. For some assays here: Potencies beside an inconclusive call are fits to weak or partial responses and may not hold up. The source made the active and inactive calls. Unless noted, calls come from the whole dose curve; as a rule, active = well fitted curve in the direction sought with a large enough effect in the repeat runs; inconclusive = weak or mixed curves; inactive = no such curve, though single readings can be large; an effect the other way counts as inactive or inconclusive.
# Key:
# [1] = qHTS assay for small molecule agonists of the p53 signaling pathway (AID 651631; calls by dose curve; note: nearly all actives have a fitted effect of over 15% in size; note: potency is the fitted concentration of half-maximal effect; for activation: % is set by controls: 0 for no effect and ±100 for the full control effect); settings: HCT-116 p53RE-bla reporter, beta-lactamase FRET ratio, 16 h; activation: at 73.3 µM (top of the series) unless noted
# Outline: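 HCT-116 cells carrying a beta-lactamase reporter under p53 response elements were dosed with compound for 16 h at 37 °C. LiveBLAzer B/G FRET substrate was then added for 2 h at room temperature, and fluorescence intensity was read to detect pathway agonism.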
# [2] = target: Estrogen receptor (Homo sapiens) (UniProt P03372); assay: qHTS assay to identify small molecule antagonists of the estrogen receptor alpha (ER-alpha) signaling pathway (AID 743069; active = well fitted curve in the direction sought with a large enough effect in the signal ratio in the repeat runs, not every such curve was filed as active; inconclusive = weak or mixed curves, or effect the other way; inactive = no such curve, though single readings can be large or run the other way; the % refers to the signal ratio; note: potency is the fitted concentration of half-maximal effect; for activity, negative = inhibition: % is set by controls: 0 for no effect and ±100 for the full control effect); settings: HEK293 ER-alpha-UAS-bla, beta-lactamase ratio, antagonist mode
# UniProt P03372, sequence (P03372 whole entry, looked up): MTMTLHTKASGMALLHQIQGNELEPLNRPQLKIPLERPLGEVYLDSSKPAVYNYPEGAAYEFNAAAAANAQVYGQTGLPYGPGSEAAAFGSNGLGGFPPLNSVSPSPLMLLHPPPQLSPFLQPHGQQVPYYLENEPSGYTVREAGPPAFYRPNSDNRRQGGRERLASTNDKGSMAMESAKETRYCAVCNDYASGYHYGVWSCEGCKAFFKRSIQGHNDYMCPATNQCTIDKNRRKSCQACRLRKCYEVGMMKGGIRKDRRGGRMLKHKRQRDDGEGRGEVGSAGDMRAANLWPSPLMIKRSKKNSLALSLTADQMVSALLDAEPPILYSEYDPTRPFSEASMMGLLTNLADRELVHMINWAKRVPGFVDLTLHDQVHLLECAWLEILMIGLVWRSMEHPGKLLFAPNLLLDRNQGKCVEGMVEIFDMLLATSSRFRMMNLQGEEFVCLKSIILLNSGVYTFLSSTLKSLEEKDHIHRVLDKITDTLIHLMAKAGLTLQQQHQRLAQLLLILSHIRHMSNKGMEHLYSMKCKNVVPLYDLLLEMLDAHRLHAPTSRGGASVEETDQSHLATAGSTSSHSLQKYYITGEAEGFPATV
# Outline: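 HEK293 cells stably carrying an ER-alpha-UAS-bla beta-lactamase reporter were pre-cultured overnight in 2% charcoal-stripped FBS medium. Test compounds in DMSO were added together with 17beta-estradiol for 18 hr at 37C. Read-out was fluorescence after 2 hr with LiveBLAzer B/G FRET substrate at room temperature.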
# [3] = target: Thyrotropin receptor (Homo sapiens) (UniProt P16473); assay: qHTS assay to identify small molecule agonists of the thyroid stimulating hormone receptor (TSHR) signaling pathway (AID 1224843; calls by dose curve; note: nearly all actives have a fitted effect of over 45% in size; note: potency is the fitted concentration of half-maximal effect; for activation: % is set by controls: 0 for no effect and ±100 for the full control effect); settings: TSHR-HEK293 cells, cAMP HTRF, agonist mode, 30 min; activation: at 92.4 µM (top of the series) unless noted
# UniProt P16473, sequence (P16473 whole entry, looked up): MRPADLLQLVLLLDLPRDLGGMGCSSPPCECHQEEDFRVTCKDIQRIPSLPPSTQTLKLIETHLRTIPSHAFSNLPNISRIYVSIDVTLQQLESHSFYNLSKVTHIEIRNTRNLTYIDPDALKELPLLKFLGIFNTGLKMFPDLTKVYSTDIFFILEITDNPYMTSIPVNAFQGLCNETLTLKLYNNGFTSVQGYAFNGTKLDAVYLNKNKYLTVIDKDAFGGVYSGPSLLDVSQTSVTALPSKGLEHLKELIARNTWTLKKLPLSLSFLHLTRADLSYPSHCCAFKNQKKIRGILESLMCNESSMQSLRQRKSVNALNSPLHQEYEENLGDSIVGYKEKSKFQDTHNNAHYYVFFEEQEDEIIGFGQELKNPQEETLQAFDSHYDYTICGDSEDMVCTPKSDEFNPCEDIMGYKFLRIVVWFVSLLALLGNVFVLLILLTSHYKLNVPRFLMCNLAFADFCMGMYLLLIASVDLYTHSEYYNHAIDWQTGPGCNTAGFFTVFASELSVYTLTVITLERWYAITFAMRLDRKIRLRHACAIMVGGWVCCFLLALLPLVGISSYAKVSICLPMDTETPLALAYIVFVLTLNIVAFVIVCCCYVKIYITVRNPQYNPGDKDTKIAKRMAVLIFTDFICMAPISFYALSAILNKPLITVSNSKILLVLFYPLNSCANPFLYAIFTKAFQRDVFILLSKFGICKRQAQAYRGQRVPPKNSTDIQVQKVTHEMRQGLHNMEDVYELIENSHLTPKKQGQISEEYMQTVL
# Outline: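 TSHR-expressing HEK293 cells (800 per well) were exposed to compounds for 30 min at room temperature. cAMP was then detected by HTRF competition with cAMP-d2 and anti-cAMP cryptate, read after 1 h at room temperature. Fifteen concentrations, triplicate.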
# [4] = qHTS RealTime-Glo MT Cell Viability Assay in HEK293 cells - 24 hour (AID 1224886); note: top concentration of the series differs between compounds; % is set by controls: 0 for no effect and ±100 for the full control effect; nearly all actives have a fitted effect of over 50% in size
# Outline: (§1)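 Viability tracked continuously by luminescence as live cells reduce a prosubstrate for NanoLuc; HEK293 cells preincubated 5 h, compound-treated at 37 C, and read at 0, 8, 16, 24, 32 and 40 h.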
# [5] = target: Nuclear receptor subfamily 1 group I member 2 (Homo sapiens) (UniProt O75469); assay: Human pregnane X receptor (PXR) small molecule agonists, qHTS assay (AID 1346982); note: nearly all actives have a fitted effect of over 35% in size; note: potency is the fitted concentration of half-maximal effect
# UniProt O75469, sequence (O75469 whole entry, looked up): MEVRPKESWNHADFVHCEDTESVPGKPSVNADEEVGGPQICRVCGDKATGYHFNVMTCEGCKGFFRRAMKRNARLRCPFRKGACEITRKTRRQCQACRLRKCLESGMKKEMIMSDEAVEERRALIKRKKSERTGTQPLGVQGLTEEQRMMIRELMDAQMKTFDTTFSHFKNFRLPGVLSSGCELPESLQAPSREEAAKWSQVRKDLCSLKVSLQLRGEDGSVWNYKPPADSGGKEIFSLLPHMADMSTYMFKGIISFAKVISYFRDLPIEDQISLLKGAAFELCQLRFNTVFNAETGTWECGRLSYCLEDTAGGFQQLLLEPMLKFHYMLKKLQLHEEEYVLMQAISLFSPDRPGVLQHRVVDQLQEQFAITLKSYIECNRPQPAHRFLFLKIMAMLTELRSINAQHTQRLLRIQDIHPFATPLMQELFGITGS
# Outline: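 Luminescence (ONE-Glo, 30 min RT) after 24 hr compound exposure of PXR-Luc HepG2 cells; cells rested 5 hr post-plating in 5% charcoal-stripped FBS medium.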
# [6] = qHTS assay to identify small molecule agonists of the farnesoid-X-receptor (FXR) signaling pathway - cell viability counter screen (AID 743218); settings: FXR-bla HEK293T viability, CellTiter-Glo luminescence, 16 h; viability change, negative = cytotoxic: at 62.6 µM (top of the series); note: % is set by controls: 0 for no effect and ±100 for the full control effect; nearly all actives have a fitted effect of over 45% in size
# Outline: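 In GeneBLAzer FXR-UAS-bla HEK 293T cells, compounds act for 16 h at 37 C. Cell viability is then scored in the reporter wells by CellTiter-Glo, 30 min at RT, luminescence.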
# [7] = target: Estrogen receptor beta (Homo sapiens) (UniProt Q92731); assay: qHTS assay to identify small molecule agonists of the estrogen receptor beta (ER-beta) signaling pathway (AID 1259377; active = well fitted activation curve with a large enough effect in the signal ratio in the repeat runs, not every such curve was filed as active; inconclusive = weak or mixed curves, or effect the other way; the % refers to the signal ratio; note: potency is the fitted concentration of half-maximal effect); settings: ER-beta-UAS-bla HEK293T, beta-lactamase FRET ratio, 16 h; activation: at 92.4 µM (top of the series) unless noted
# UniProt Q92731, sequence (Q92731 whole entry, looked up): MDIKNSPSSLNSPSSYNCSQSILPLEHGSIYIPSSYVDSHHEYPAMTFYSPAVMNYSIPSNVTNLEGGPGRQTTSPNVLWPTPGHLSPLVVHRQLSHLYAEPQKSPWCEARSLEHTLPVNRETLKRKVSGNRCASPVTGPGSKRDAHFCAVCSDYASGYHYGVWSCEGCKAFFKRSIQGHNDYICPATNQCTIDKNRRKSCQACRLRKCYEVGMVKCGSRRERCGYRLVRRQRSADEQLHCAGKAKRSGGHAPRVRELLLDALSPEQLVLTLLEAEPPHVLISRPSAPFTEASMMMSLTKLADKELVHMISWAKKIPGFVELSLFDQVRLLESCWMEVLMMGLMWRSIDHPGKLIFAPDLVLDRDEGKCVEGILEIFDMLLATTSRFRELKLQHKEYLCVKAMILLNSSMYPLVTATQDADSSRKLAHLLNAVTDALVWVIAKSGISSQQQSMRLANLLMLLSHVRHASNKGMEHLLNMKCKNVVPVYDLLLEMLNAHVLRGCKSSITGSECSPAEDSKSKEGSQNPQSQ
# Outline: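 ER-beta-UAS-bla HEK293T cells in medium with 2% charcoal-stripped FBS were exposed to compounds for 16 h at 37C. Beta-lactamase reporter activity was read as fluorescence after 2 h with LiveBLAzer B/G FRET substrate at room temperature.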
# [8] = qHTS assay to identify small molecule antagonists of the progesterone receptor (PR) signaling pathway - cell viability counter screen (AID 1346798); note: nearly all actives have a fitted effect of over 50% in size; note: potency is the fitted concentration of half-maximal effect
# Outline: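 PR-UAS-bla HEK293T cells, 3,000/well in 2% charcoal-stripped FBS medium, dosed with compounds plus R5020 agonist and incubated 16 h at 37C. Viability then measured in the same wells by CellTiter-Glo luminescence after 30 min at RT.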
# [9] = qHTS assay to identify small molecule agonists of the constitutive androstane receptor (CAR) signaling pathway - cell viability counter screen (AID 1224836); note: nearly all actives have a fitted effect of over 45% in size; note: potency is the fitted concentration of half-maximal effect
# Outline: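 HepG2 cells stably carrying hCAR and a CYP2B6-2.2kb reporter; 15-concentration compounds plus PK11195 (final 0.75 uM), 23 hr at 37 C/5% CO2. Viability read by CellTiter-Fluor fluorescence.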
# [10] = target: Nuclear receptor subfamily 1 group I member 3 (Homo sapiens) (UniProt Q14994); assay: qHTS assay to identify small molecule agonists of the constitutive androstane receptor (CAR) signaling pathway (AID 1224839); note: potency is the fitted concentration of half-maximal effect; nearly all actives have a fitted effect of over 15% in size
# UniProt Q14994, sequence (Q14994 whole entry, looked up): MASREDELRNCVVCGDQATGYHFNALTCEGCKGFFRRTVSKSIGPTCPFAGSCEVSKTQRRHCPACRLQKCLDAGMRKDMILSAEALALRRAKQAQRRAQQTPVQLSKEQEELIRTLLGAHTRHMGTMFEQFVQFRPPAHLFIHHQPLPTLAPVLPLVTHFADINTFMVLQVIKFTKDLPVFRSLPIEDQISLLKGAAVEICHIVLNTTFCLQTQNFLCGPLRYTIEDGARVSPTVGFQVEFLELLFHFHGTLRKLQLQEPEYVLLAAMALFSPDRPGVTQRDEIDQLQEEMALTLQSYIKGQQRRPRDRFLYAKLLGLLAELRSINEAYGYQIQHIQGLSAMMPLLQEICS
# Outline: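 HepG2 cells stably co-transfected with hCAR and a CYP2B6-2.2kb luciferase reporter; compounds at 15 concentrations with 0.75 uM PK11195 present. After 24 hr at 37 C, luciferase read by ONE-Glo luminescence.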
# [11] = qHTS assay for identifying genotoxic compounds that show differential cytotoxicity against isogenic chicken DT40 cell lines with known DNA damage response pathways - Rad54/Ku70 mutant cell line (AID 743015); settings: DT40 Rad54/Ku70 mutant viability, CellTiter-Glo, 40 h; activity change, negative = cytotoxicity: at 66.8 µM (top of the series); note: potency is the fitted concentration of half-maximal effect; nearly all actives have a fitted effect of over 60% in size
# [12] = qHTS assay to identify small molecule agonists of H2AX - cell viability counter screen (AID 1224847; calls by dose curve; note: nearly all actives have a fitted effect of over 30% in size; note: potency is the fitted concentration of half-maximal effect)
# Outline: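 CHO-K1 cells plated overnight at 37C, then exposed 3 h at 37C to compounds at 15 concentrations (0.76% DMSO final). Viability by CellTiter-Glo luminescence after 30 min at room temperature.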
# [13] = qHTS assay to identify small molecule agonists of the estrogen receptor beta (ER-beta) signaling pathway - cell viability counter screen (AID 1259380); note: potency is the fitted concentration of half-maximal effect; nearly all actives have a fitted effect of over 30% in size
# Outline: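 Viability of ER-beta-UAS-bla HEK293T cells was determined by CellTiter-Glo luminescence following 16 hr treatment with test compounds at 37C.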
# [14] = target: Cytochrome P450 3A4 (Homo sapiens) (UniProt P08684); assay: Cytochrome P450 Family 3 Subfamily A Member 4 (CYP3A4) small molecule antagonists: luciferase reporter qHTS assay (AID 1671201); note: potency is the fitted concentration of half-maximal effect; nearly all actives have a fitted effect of over 50% in size
# UniProt P08684, sequence (P08684 whole entry, looked up): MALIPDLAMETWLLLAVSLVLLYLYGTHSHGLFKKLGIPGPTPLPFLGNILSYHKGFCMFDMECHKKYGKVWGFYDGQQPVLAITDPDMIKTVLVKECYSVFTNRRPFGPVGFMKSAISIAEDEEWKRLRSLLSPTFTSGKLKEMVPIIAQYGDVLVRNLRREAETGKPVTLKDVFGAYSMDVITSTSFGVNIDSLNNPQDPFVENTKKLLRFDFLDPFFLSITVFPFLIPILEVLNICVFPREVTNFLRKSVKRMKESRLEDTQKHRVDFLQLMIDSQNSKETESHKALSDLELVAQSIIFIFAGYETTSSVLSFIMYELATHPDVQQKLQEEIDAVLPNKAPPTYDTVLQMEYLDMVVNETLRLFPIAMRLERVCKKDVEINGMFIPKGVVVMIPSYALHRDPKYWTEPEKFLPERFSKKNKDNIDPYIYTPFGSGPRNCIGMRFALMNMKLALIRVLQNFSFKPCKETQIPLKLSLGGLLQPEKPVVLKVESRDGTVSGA
# Outline: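 P450-Glo CYP3A4 luminescent assay: compounds preincubated 10 min at room temperature with enzyme and proluciferin substrate, NADPH regeneration added, 1 h room-temperature reaction, stopped with luciferin detection reagent; luminescence read after 20 min. Ketoconazole positive control.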
# [15] = qHTS assay to identify small molecule antagonists of the vitamin D receptor (VDR) signaling pathway - cell viability counter screen (AID 743225); settings: VDR-bla HEK293T viability, CellTiter-Glo luminescence, 16 h; viability change, negative = cytotoxic: at 61 µM (top of the series) unless noted; note: nearly all actives have a fitted effect of over 50% in size; note: potency is the fitted concentration of half-maximal effect
# Outline: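 VDR-UAS-bla HEK 293T cells were plated and incubated 4 h at 37C, then dosed with compound plus 3 nM (final) 1-alpha,25-dihydroxyvitamin D3 for 16 h. After the 2 h beta-lactamase read, viability in the same wells was read as CellTiter-Glo luminescence after 30 min at room temperature.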
# [16] = qHTS assay to identify small molecule agonists of the progesterone receptor (PR) signaling pathway - cell viability counter screen (AID 1346799; calls by dose curve; note: nearly all actives have a fitted effect of over 45% in size; note: potency is the fitted concentration of half-maximal effect)
# Outline: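 Counter screen in the PR-UAS-bla HEK293T wells (2% charcoal-stripped FBS, 16 h compound exposure at 37 C) after the bla read. CellTiter-Glo added, 30 min at room temperature, luminescence read as cell viability.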
# [17] = qHTS assay to identify small molecule antagonists of the sonic hedgehog signaling (Shh) pathway (AID 1259369; calls by dose curve; note: nearly all actives have a fitted effect of over 45% in size; note: potency is the fitted concentration of half-maximal effect)
# Outline: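 Screening used 3T3Gli1-Luc cells at 2,000 per well, compounds delivered in DMSO, and conditioned medium as agonist stimulus; plates incubated 24hr at 37 C and 5% CO2 before a 30min luciferase step.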
# [18] = target: Peroxisome proliferator-activated receptor delta (Homo sapiens) (UniProt Q03181); assay: qHTS assay to identify small molecule antagonists of the peroxisome proliferator-activated receptor delta (PPARd) signaling pathway (AID 743215; active = well fitted inhibition curve with a large enough effect in the signal ratio in the repeat runs, not every such curve was filed as active; inconclusive = weak or mixed curves, or effect the other way; inactive = no such curve, though single readings can be large or run the other way; the % refers to the signal ratio;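 note: cells stimulated with agonist L165041 at 300 nM final during compound exposure; % is set by controls: 0 for no effect and ±100 for the full control effect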); settings: HEK293H PPARd-UAS-bla, beta-lactamase FRET ratio, antagonist, 17 h; ratio activity, negative = inhibition: at 62 µM (top of the series) unless noted
# UniProt Q03181, sequence (Q03181 whole entry, looked up): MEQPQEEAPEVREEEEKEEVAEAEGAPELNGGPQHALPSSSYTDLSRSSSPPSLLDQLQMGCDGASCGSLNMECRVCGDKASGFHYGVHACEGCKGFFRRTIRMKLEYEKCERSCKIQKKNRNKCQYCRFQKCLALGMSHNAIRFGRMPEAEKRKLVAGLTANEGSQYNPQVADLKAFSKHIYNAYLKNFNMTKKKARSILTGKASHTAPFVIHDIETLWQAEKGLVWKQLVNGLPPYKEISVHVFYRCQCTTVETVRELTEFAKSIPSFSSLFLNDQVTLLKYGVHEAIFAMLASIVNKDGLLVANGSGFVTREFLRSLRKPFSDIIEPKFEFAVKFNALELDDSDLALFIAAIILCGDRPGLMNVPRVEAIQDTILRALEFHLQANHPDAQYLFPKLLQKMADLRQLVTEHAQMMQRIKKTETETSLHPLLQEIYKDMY
# Outline: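 Antagonist-mode beta-lactamase reporter screen: HEK293H cells with UAS-bla under PPARd control, stimulated by 300 nM L165041 (final) alongside test compound for 17 h at 37 C, then FRET fluorescence after 2 h substrate incubation.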
# [19] = qHTS RealTime-Glo MT Cell Viability Assay in HEK293 cells - 32 hour (AID 1224868)
# Outline: as §1
# [20] = activity, negative = inhibition: at 69.4 µM (top of the series) unless noted
# Tags give direction and shape of the fitted curve or compound fluorescence and quenching.
smiles,measurement,setting,value
CCOP(=S)(S)OCC,Potency,[1],inactive
same,Potency,[2]; [20],inactive
same,Potency,[3],inactive
same,Potency,[4],inactive
same,Potency,[5],"inconclusive: 28.8 µM [activator, single point]"
ClCOCCl,Potency,[2]; [20],inactive
same,Potency,[6],inactive
same,activation,[7],inconclusive: 18.5%
same,Potency,[8],inactive
same,Potency,[5],"inconclusive: 68.9 µM [activator, partial curve, poor fit]"
O=C(N/N=C/c1ccc([N+](=O)[O-])o1)c1cc([N+](=O)[O-])cc([N+](=O)[O-])c1O,Potency,[9],active: 11.9 µM
same,Potency,[10],active: 15 µM
same,Potency,[4],inactive
Cc1cc(-c2cc(C)c(N)c(C)c2)cc(C)c1N,Potency,[11],"inconclusive: 68.7 µM [cytotoxic, single point]"
same,Potency,[10],"inconclusive: 9.51 µM [activator, full curve, poor fit]"
same,Potency,[3],"inconclusive: 67.3 µM [falling, single point]"
same,activation,[3],inconclusive: -34.9%
same,Potency,[12],inactive
same,Potency,[13],"inconclusive: 61.3 µM [cytotoxic, single point] and inconclusive: 30.1 µM [cytotoxic, partial curve]"
same,Potency,[14],inconclusive: 35.7 µM [inhibitor] and active: 34.9 µM
CCCCC(CC)C(=O)Cl (stereo unspecified),Potency,[1],inactive
same,Potency,[6],inactive
same,activation,[7],inconclusive: 10.4%
same,Potency,[13],"inconclusive: 247 nM [cytotoxic, partial curve, poor fit]"
same,Potency,[5],inactive
C[N+]1(C)CCCCC1,Potency,[1],inactive
same,Potency,[15],"inconclusive: 0.0767 µM [cytotoxic, partial curve, poor fit]"
same,Potency,[16],"inconclusive: 13.5 µM [cytotoxic, full curve]"
CC[N+](CC)(CC)CC,Potency,[4],inactive
same,Potency,[16],"inconclusive: 0.0818 µM [rising, full curve, poor fit]"
CCOP(=S)(OCC)Oc1ccc(S(C)=O)cc1 (stereo unspecified),Potency,[11],"inconclusive: 68.6 µM [cytotoxic, single point]"
same,"activity, negative = inhibition",[2]; [20],inconclusive: 19.2%
same,Potency,[9],inactive
same,Potency,[3],inactive
same,Potency,[14],"inconclusive: 5.64 µM [inhibitor, full curve]"
O=[N+]([O-])c1ccc2c3c(cccc13)CC2,Potency,[11],"inconclusive: 21.7 µM [cytotoxic, partial curve]"
same,Potency,[2]; [20],"inconclusive: 19.5 µM [activator, full curve, poor fit]"
same,Potency,[3],inactive
same,Potency,[17],active: 21.7 µM
same,Potency,[7],inactive
same,Potency,[14],"inconclusive: 71 µM [inhibitor, partial curve]"
COC(=O)c1ccccc1C(=O)OC,"activity, negative = inhibition",[2]; [20],inconclusive: 21.2%
same,"activity, negative = inhibition",[2]; at 69.4 µM (top of the series),inactive: -17.6%
same,"activity, negative = inhibition",[2]; at 79.1 µM (top of the series),inactive: 3.76%
same,Potency,[5],"inconclusive: 30.8 µM [activator, partial curve]"
O=C(N[C@H]1CN2CCC1CC2)c1ccc2c(c1)OCCO2,"ratio activity, negative = inhibition",[18],inconclusive: 2.87%
same,Potency,[9],"inconclusive: 68.6 µM [cytotoxic, partial curve, poor fit]"
same,Potency,[7],inactive
CC[C@@H](CO)NC(=O)[C@@H]1C=C2c3cccc4[nH]cc(c34)C[C@H]2N(C)C1,Potency,[2]; [20],inconclusive: 26.8 µM [activator]
same,Potency,[18],inactive
same,Potency,[6],inactive
same,Potency,[19],inactive
same,Potency,[16],"inconclusive: 6.68 µM [cytotoxic, single point]"
CCCCCCCCOC(=O)c1ccc(C(=O)OCCCCCCCC)c(C(=O)OCCCCCCCC)c1,Potency,[15],"inconclusive: 55.6 µM [cytotoxic, partial curve, poor fit]"
same,Potency,[12],inactive
same,Potency,[17],inactive
same,Potency,[13],"inconclusive: 69400 nM [cytotoxic, single point]"
same,Potency,[8],active: 27.6 µM
same,Potency,[16],inactive
CCCN1CCC[C@@H]2Cc3nc(N)ncc3C[C@H]21,Potency,[1],"inconclusive: 33.5 µM [falling, partial curve, poor fit]"
same,Potency,[15],inactive
Cl/C=C\CCl,Potency,[7],"inconclusive: 7.7 µM [activator, full curve, poor fit]"
CCCCCCCCBr,Potency,[7],inactive
same,Potency,[16],inactive
same,Potency,[5],inactive
CCOC(C(=O)OCCN(C)C)(c1ccccc1)c1ccccc1,Potency,[10],"inconclusive: 23.7 µM [activator, partial curve]"
same,activation,[3],inconclusive: 25.1% [at 42.5 µM]
C[C@]12CC[C@H]3[C@@H](CCC4=CC(=O)CC[C@@H]43)[C@@H]1CC[C@@H]2OC(=O)CCC1CCCCC1,Potency,[12],"inconclusive: 55.2 µM [cytotoxic, partial curve, poor fit]"
same,Potency,[17],inactive
same,Potency,[7],active: 1.19 µM
same,Potency,[16],"inconclusive: 0.0944 µM [rising, full curve, poor fit]"
